Reference: a compilation of properties of binary mixtures (doi:10.1016/j.molliq.2021.118200)
The densities may have been worked out from excess volumes.

Assay: xn = mol fraction of the nth substance listed
Settings: 100 kPa

CCC(=O)[O-].COCCn1cc[n+](C)c1 + O
mass density [kg/m3]
Settings | 288.15 K | 293.15 K | 298.15 K | 303.15 K | 308.15 K | 313.15 K | 318.15 K
x1 = 0.8277 | 1115.3 | 1111.9 | 1108.5 | 1105.2 | 1101.8 | 1098.4 | –
x1 = 0.8546 | 1115.4 | 1112.1 | 1108.7 | 1105.4 | 1102 | 1098.6 | –
x1 = 0.8822 | – | 1112.2 | 1108.9 | 1105.5 | 1102.1 | 1098.8 | 1095.4
x1 = 0.9145 | 1115.7 | 1112.4 | 1109 | – | – | 1099 | 1095.6
x1 = 0.9457 | – | 1112.5 | 1109.2 | 1105.8 | 1102.5 | – | 1095.8
x1 = 1 | – | 1112.7 | – | 1106 | 1102.8 | 1099.5 | 1096.1

CC(=O)[O-].COCCn1cc[n+](C)c1 + O
mass density [kg/m3]
Settings | 288.15 K | 293.15 K | 298.15 K | 303.15 K | 308.15 K | 313.15 K | 318.15 K
x1 = 0.8396 | 1138.6 | – | 1131.9 | 1128.6 | 1125.2 | 1121.9 | 1118.6
x1 = 0.8663 | 1139 | 1135.7 | 1132.3 | 1129 | – | 1122.3 | –
x1 = 0.8945 | 1139.4 | – | 1132.7 | – | 1126 | 1122.7 | 1119.4
x1 = 0.9225 | 1139.7 | 1136.4 | 1133.1 | 1129.8 | 1126.4 | 1123.1 | 1119.7
x1 = 0.9511 | 1140 | 1136.7 | 1133.4 | 1130.1 | 1126.7 | 1123.4 | 1120
x1 = 1 | 1140.5 | 1137.2 | 1134 | 1130.6 | 1127.3 | 1124 | 1120.6
